# According to PMC5700166:
# Only a part is listed here, and it is no random draw. The list includes weakly bound sequences.
# Assays:
# Experiment in all cases: protein-binding microarray (PBM)
# Conditions in all cases: PBM: ~300 nM protein, 6 mM HEPES pH 7.8, 80 mM KCl, 0.5 mM EDTA, 0.5 mM EGTA, 6% glycerol, 35 ng/ul poly-dIdC, 1% milk, 1 h, room temperature; Ap Aiptasia and Nv Nematostella (sea anemones) / Co Capsaspora / Aq Amphimedon (sponge) / Dm Drosophila / Hu human; RHD is the Rel homology domain; high values mean tight binding; most listed sequences are background and not binding sites; double strand, one strand shown
# GST-Ap-NF-kB RHD = target: T1, GST-Ap-NF-kB RHD (UniProt A0A913YAJ5)
# T1 sequence: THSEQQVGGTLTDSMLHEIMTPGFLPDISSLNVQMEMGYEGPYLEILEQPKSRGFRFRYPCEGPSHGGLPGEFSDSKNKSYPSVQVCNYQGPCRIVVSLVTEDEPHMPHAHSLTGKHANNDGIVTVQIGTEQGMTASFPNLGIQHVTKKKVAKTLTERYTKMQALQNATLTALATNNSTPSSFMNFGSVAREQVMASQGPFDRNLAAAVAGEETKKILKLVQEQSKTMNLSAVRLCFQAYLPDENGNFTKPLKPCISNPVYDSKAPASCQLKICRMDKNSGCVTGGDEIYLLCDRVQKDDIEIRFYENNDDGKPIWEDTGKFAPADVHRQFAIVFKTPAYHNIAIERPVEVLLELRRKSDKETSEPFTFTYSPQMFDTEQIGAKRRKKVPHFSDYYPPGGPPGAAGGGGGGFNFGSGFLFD
# [1] = target: T2, GST-Nv-NF-kB (Cys allele) (UniProt E5G601)
# T2 sequence: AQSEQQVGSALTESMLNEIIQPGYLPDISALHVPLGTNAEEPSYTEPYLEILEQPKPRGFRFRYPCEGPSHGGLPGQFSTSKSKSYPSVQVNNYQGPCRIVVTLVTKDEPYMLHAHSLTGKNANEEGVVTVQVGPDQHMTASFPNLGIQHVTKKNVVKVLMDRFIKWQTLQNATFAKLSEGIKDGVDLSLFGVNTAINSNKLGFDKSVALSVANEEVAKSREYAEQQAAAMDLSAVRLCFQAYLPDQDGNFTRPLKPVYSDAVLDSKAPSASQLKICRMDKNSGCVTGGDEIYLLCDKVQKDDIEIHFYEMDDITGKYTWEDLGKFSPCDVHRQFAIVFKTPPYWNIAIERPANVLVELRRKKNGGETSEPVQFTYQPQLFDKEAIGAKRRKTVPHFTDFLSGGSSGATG
# GST-Co-NF-kB = target: T3, GST-Co-NF-kB (UniProt F1ARL5)
# T3 sequence: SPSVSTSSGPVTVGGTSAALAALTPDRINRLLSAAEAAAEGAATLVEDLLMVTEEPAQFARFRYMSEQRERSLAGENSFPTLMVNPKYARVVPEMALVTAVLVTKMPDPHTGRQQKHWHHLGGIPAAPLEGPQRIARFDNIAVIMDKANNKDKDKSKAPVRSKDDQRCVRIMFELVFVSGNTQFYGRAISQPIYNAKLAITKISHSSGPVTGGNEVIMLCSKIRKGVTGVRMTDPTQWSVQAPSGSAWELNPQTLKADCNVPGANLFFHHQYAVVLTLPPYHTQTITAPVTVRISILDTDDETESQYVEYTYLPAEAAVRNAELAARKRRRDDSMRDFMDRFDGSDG
# GST-Dm-Relish = target: T4, GST-Dm-Relish (UniProt Q94527)
# T4 sequence: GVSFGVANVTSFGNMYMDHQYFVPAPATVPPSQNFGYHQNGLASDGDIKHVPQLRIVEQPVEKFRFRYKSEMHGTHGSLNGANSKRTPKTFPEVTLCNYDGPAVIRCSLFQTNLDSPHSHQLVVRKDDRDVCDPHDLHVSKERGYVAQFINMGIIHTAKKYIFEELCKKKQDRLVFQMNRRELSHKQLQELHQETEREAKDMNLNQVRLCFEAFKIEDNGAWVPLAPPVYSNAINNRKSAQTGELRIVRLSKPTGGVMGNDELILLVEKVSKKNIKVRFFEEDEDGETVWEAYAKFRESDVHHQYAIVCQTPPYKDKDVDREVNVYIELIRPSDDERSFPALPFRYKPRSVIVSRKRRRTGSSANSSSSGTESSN
# GST-Aq-NF-kB = target: T5, GST-Aq-NF-kB (UniProt A9Y5G7)
# T5 sequence: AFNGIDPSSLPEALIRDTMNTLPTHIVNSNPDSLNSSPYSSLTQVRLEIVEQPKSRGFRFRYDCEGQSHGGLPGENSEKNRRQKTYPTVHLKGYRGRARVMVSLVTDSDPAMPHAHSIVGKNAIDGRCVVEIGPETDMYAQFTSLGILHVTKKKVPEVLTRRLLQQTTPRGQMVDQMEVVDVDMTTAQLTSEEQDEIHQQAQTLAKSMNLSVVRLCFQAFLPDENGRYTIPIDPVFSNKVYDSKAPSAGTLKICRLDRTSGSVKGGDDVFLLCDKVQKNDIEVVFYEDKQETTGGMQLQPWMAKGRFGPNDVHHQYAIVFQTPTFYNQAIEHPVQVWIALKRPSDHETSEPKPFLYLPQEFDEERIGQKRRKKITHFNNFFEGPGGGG
Sequence,binding signal (GST-Ap-NF-kB RHD) [z-score],binding signal [1] [z-score],binding signal (GST-Co-NF-kB) [z-score],binding signal (GST-Dm-Relish) [z-score],binding signal (GST-Aq-NF-kB) [z-score]
CCGATTAACATCAGCACAGACTTTGATGTTAATCGGGTCTTGATTCGCTTGACGCTGCTG,-0.344,-0.362,-0.393,-0.831,-0.626
CCGATTAACATCAAGCACAACATTGATGTTAATCGGGTCTTGATTCGCTTGACGCTGCTG,-0.571,0.0588,-0.467,-0.116,-0.265
CCGATTAACATCAACCTCGATTGTGATGTTAATCGGGTCTTGATTCGCTTGACGCTGCTG,-0.371,-0.257,0.293,-0.226,-0.819
CCGATTAACATCAACCCACCAGGTGATGTTAATCGGGTCTTGATTCGCTTGACGCTGCTG,0.474,-0.167,0.031,0.283,0.147
CCGATTAACATCAATCGCCTCTCTGATGTTAATCGGGTCTTGATTCGCTTGACGCTGCTG,-0.248,0.515,-0.626,-0.737,-0.171
CCGATTAACATCACAGACCCGACTGATGTTAATCGGGTCTTGATTCGCTTGACGCTGCTG,0.0401,0.216,-0.48,-0.12,0.053
CCGATTAACATCACGACAGTTATTGATGTTAATCGGGTCTTGATTCGCTTGACGCTGCTG,-0.166,-0.613,0.562,-0.344,-0.345
CCGATTAACATCACGTGCCTCGATGATGTTAATCGGGTCTTGATTCGCTTGACGCTGCTG,-0.285,-0.231,-0.592,-0.235,-0.227
CCGATTAACATCACGCGTCTACCTGATGTTAATCGGGTCTTGATTCGCTTGACGCTGCTG,0.227,0.205,-0.665,0.144,-0.281
CCGATTAACATCAACAGAGTGCGTGATGTTAATCGGGTCTTGATTCGCTTGACGCTGCTG,-0.284,-0.267,0.0114,-0.125,-0.369
CCGATTAACATCACCAAATTTCCTGATGTTAATCGGGTCTTGATTCGCTTGACGCTGCTG,0.457,0.0257,0.35,0.599,0.745
CCGATTAACATCAATTTCACAGGTGATGTTAATCGGGTCTTGATTCGCTTGACGCTGCTG,-0.037,-0.242,0.834,0.727,0.305
CCGATTAACATCAAGACCCGCTTTGATGTTAATCGGGTCTTGATTCGCTTGACGCTGCTG,0.199,-1,-0.679,-0.319,0.111
CCGATTAACATCAGTGTGTCGGATGATGTTAATCGGGTCTTGATTCGCTTGACGCTGCTG,0.0342,-0.478,0.369,-0.505,-0.445
CCGATTAACATCACCTAGCACGATGATGTTAATCGGGTCTTGATTCGCTTGACGCTGCTG,0.0891,-0.315,0.556,0.257,0.339
CCGATTAACATCACCAATTTTCCTGATGTTAATCGGGTCTTGATTCGCTTGACGCTGCTG,0.372,0.48,0.602,0.117,0.336
CCGATTAACATCATTGTAGTCCATGATGTTAATCGGGTCTTGATTCGCTTGACGCTGCTG,-0.564,-0.14,0.195,-0.55,-0.294
CCGATTAACATCAAGAGATTTCCTGATGTTAATCGGGTCTTGATTCGCTTGACGCTGCTG,-0.18,-0.134,0.233,-0.535,0.247
CCGATTAACATCACGAGGTTGACTGATGTTAATCGGGTCTTGATTCGCTTGACGCTGCTG,0.402,-1.11,-0.287,-0.488,-0.187
CCGATTAACATCAGTTCTGTCAATGATGTTAATCGGGTCTTGATTCGCTTGACGCTGCTG,-0.082,0.122,-0.188,-0.384,-0.271
CCGATTAACATCACTTGGCCCAATGATGTTAATCGGGTCTTGATTCGCTTGACGCTGCTG,-0.0561,0.0293,-0.714,-0.722,-0.0106
CCGATTAACATCATTTTTTTAAGTGATGTTAATCGGGTCTTGATTCGCTTGACGCTGCTG,-0.799,0.0409,-0.182,0.366,-0.411
CCGATTAACATCAGGCAGTTCCATGATGTTAATCGGGTCTTGATTCGCTTGACGCTGCTG,-0.515,-0.0128,-0.00877,-0.576,-0.327
CCGATTAACATCAGGTATATTAATGATGTTAATCGGGTCTTGATTCGCTTGACGCTGCTG,0.281,-0.155,-0.429,0.473,0.0923
CCGATTAACATCATGCATGCCGGTGATGTTAATCGGGTCTTGATTCGCTTGACGCTGCTG,0.113,-0.206,-0.698,0.966,0.0597
CCGATTAACATCATTACCGTAGTTGATGTTAATCGGGTCTTGATTCGCTTGACGCTGCTG,-0.157,-0.238,0.414,0.0634,0.268
CCGATTAACATCACTCCAGTTACTGATGTTAATCGGGTCTTGATTCGCTTGACGCTGCTG,-0.185,-0.492,-0.182,-0.272,-0.298
CCGATTAACATCAGAGCGTTTGCTGATGTTAATCGGGTCTTGATTCGCTTGACGCTGCTG,-0.494,-0.86,-0.667,-0.83,-0.586
